In PubChem BioAssay (NCATS):
Inconclusive results, whose numbers are uncertain, are shown with a selection of clear calls. Potencies of inconclusive entries are left out as doubtful fits. Activity calls are given as the source filed them. The call rests on the fitted dose curve; in most records, active means well fitted inhibition curve with a large enough effect; inconclusive means small, poorly fitted or top-dose-only effect, or another doubt; inactive means no such curve, though single readings can be large or run the other way.

These compounds were tested against DNA polymerase eta (Homo sapiens) (UniProt Q9Y253) (assay: qHTS for Inhibitors of Polymerase Eta: Confirmatory Assay for Cherry-picked Compounds (AID 720502)). Details: Pol eta primer extension, TAMRA/BHQ fluorescence, 10 min.
Sequence of UniProt Q9Y253 (Q9Y253 whole entry, looked up): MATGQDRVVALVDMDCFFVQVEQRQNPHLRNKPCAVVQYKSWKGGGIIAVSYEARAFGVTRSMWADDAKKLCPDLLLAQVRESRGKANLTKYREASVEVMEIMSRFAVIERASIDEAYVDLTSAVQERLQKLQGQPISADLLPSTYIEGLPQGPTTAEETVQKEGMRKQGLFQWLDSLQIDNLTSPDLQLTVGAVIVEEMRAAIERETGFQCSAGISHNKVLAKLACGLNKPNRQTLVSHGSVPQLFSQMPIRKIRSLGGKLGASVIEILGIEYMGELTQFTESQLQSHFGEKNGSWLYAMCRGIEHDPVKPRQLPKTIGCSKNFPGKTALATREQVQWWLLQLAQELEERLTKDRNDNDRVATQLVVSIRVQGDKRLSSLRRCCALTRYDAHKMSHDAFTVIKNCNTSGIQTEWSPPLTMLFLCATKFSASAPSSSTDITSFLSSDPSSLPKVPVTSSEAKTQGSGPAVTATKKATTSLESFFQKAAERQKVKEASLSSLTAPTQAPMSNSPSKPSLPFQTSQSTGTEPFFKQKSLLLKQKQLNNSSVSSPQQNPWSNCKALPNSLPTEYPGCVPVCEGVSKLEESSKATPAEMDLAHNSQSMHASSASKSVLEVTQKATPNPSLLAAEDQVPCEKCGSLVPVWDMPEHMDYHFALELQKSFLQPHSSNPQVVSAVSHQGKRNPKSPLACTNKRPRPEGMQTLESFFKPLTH
Text: The Y-family of DNA polymerases, such as the Polymerase Eta (Pol eta), are specifically involved in DNA repair. Pol eta copies undamaged DNA with a lower fidelity than other DNA-directed polymerases. However, it accurately replicates UV-damaged DNA. When thymine dimers are present, this polymerase inserts the complementary nucleotides in the newly synthesized DNA, thereby bypassing the lesion and suppressing the mutagenic effect of UV-induced DNA damage. […] Thus, while Pol eta's (and most likely iota's) normal function is to protect humans against the deleterious consequences of DNA damage, under certain conditions they can have deleterious effects on human health. As a consequence, small molecule inhibitors of Pol eta (identified from a high throughput replication assay) have potential therapeutic applications. A 1536-well format, fluorescence based, high-throughput screen (AID 588591) is developed in collaboration with the National Institute of Child Health & Human Development (NICHD) to screen for inhibitors of the Pol eta enzyme. This screen is used to validate the activity of the selected compounds from the primary assay against the human Pol eta. Inhibition is the desired outcome for this assay. NIH Chemical Genomics Center [NCGC] NIH Molecular Libraries Probe Centers Network [MLPCN] MLPCN Grant: MH090825 Assay Submitter (PI): Roger Woodgate, NICHD
Three microliters of reagents (buffer in column 3 and 4 as negative control while 10 nM Pol eta in columns 1, 2, and 5-48) were dispensed into a 1536-well black solid-bottom plate. Compounds (23 nL) were transferred via Kalypsys pin tool equipped with 1536-pin array. The plates were then incubated for 15 min at room temperature, and 1 uL of substrate was added to start the reaction for a final concentration of 50 nM. The substrate was made by the annealing of unlabeled oligodeoxynucleotide primer (59-[…]-39) and TAMRA-labeled reporter strand (59-[…]-6-TAMRA-39) to oligodeoxynucleotide template labeled with BHQ-2 (59-BHQ-2-[…]-39) described in detail at the Yamanaka et.al. (PLOS, 2012) reference paper. The assay plates were initially read after 0 min and again after 10 min of kinetic reaction using the PerkinElmer Viewlux reader equipped with 525 nm excitation and 598 nm emission filters.
Potency means the concentration at half of the fitted maximal effect; tags describe the fitted curve by direction and shape.

How did the Potency turn out when Cc1ccnc2nc(C(=O)Nc3nc(-c4ccccn4)cs3)nn12 was run?
The Potency was active: 84.9 µM.

Which Potency does the source give for Cc1ccc(S(=O)(=O)Nc2ccccc2C(=O)Nc2nc(-c3ccc(F)cc3)cs2)cc1 here?
The Potency was inconclusive [inhibitor, single point].

For Cc1c(C(=O)O)sc2nc3n(c(=O)c12)CCC3, which Potency is on record?
Its Potency is active: 60.1 µM.

How did the Potency turn out when N#Cc1cc(C(=O)c2cc(F)ccc2O)cn(-c2nccs2)c1=O was run?
Its Potency is inconclusive [inhibitor, single point].

For CCC1=NN2C(=N)/C(=C\c3ccc(OCc4cc(=O)n5nc(CC)sc5n4)c(OC)c3)C(=O)N=C2S1, which Potency is on record?
The Potency was active: 16.9 µM.

Which Potency does the source give for CCOc1cc(/C=N/Nc2ccc(S(=O)(=O)Nc3ccccc3C(=O)O)cc2[N+](=O)[O-])cc(Cl)c1O here?
Its Potency is active: 67.5 µM.

How did the Potency turn out when Cc1cccc(C)c1-n1cccc1/C=C1\SC(=S)N(c2cccc(C(=O)O)c2)C1=O was run?
The Potency was inconclusive [inhibitor, single point].

For CCSc1nnc(NC(=O)C2CC=CCC2C(=O)O)s1 (stereo not given), which Potency is on record?
The Potency was inconclusive [inhibitor, single point].

How did the Potency turn out when CCN(c1ccccc1)S(=O)(=O)c1cc(C(=O)O)ccc1C was run?
Its Potency is active: 9.53 µM.

With O=C(O)c1cc(-c2ccc(/C=C3\NC(=O)N(c4ccccc4)C3=O)o2)ccc1Cl as the compound, how does the Potency read?
The Potency was active: 15.1 µM.

With COc1cc(/C=C2\C(=N)N3N=C(S(C)(=O)=O)SC3=NC2=O)cc(OC)c1OCCOc1ccccc1C as the compound, how does the Potency read?
The Potency was inconclusive [inhibitor, single point].

For O=c1cc(-c2ccc(O)cc2)oc2c(O)c(O)c(O)c(O)c12, which Potency is on record?
Its Potency is active: 5.36 µM.

With CN(C)CCCn1c2c3ccccc3ccc2c2oc(=O)c3ccccc3c21 as the compound, how does the Potency read?
The Potency was inconclusive [inhibitor, partial curve].

With Cc1ccc(/C=C/C(=O)Nc2ccc([N+](=O)[O-])c(NC(=O)/C=C/c3ccc(C)o3)c2)o1 as the compound, how does the Potency read?
Its Potency is inconclusive [inhibitor, single point].

Which Potency does the source give for CN(C(=O)/C=C/c1ccco1)c1ccccc1C(=O)O here?
The Potency was inconclusive [inhibitor, single point].

With CSC1=NSC2=NC(=O)/C(=C\c3coc4ccccc4c3=O)C(=N)N12 as the compound, how does the Potency read?
Its Potency is inconclusive [inhibitor, single point].

With O=C(O)/C=C/c1ccc([N+](=O)[O-])o1 as the compound, how does the Potency read?
Its Potency is active: 23.9 µM.

CC1=NOC(=O)/C1=C\c1ccc(-c2ccc(Cl)cc2Cl)o1 was tested. Which Potency did it give?
Its Potency is inconclusive [inhibitor, single point].

With COc1ccc(-n2c(C)cc(/C=C/c3nc(O)c([N+](=O)[O-])c(=O)[nH]3)c2C)cc1 as the compound, how does the Potency read?
Its Potency is inconclusive [inhibitor, single point].

For CC(=O)N1CCN(c2ccc(NS(=O)(=O)c3ccc4c(c3)CC(=O)N4)cc2)CC1, which Potency is on record?
Its Potency is inconclusive [inhibitor, single point].

For O=C(NN1C(=O)/C(=C/c2ccc(O)c(O)c2)SC1=S)c1ccccc1, which Potency is on record?
Its Potency is inconclusive [inhibitor, full curve, poor fit].

With C=CCn1c(=S)[nH]c2scc(-c3ccco3)c2c1=O as the compound, how does the Potency read?
The Potency was active: 26.9 µM.

Which Potency does the source give for O=C(O)c1ccc(N2C(=O)c3cccc4c(C(=O)O)ccc(c34)C2=O)cc1 here?
The Potency was active: 3.38 µM.

With N=C1/C(=C\c2coc3ccccc3c2=O)C(=O)N=C2SC=CN12 as the compound, how does the Potency read?
Its Potency is inconclusive [inhibitor, single point].

For O=C1CCCC2=C1C(c1ccc(O)c(O)c1)Nc1ccc3ncccc3c12 (stereo not given), which Potency is on record?
Its Potency is inconclusive [inhibitor, single point].

For C=C(C)CCOC(=O)C(CC(=O)O)NCc1ccco1 (stereo not given), which Potency is on record?
Its Potency is active: 26.9 µM.

O=C(Nc1ccc(Cl)cc1C(=O)O)c1ccc2c(c1)C(=O)N(Cc1ccco1)C2=O was tested. Which Potency did it give?
The Potency was inconclusive [inhibitor, single point].

For CCOc1ccc(S(=O)(=O)Nc2cc(SCC(=O)O)c(O)c3ccccc23)cc1, which Potency is on record?
The Potency was inconclusive [inhibitor, single point].

Which Potency does the source give for COc1ccc(S(=O)(=O)CC(=O)c2cc3cc(Br)ccc3oc2=O)cc1 here?
The Potency was inconclusive [inhibitor, single point].

O=C(CSc1nc2ccccc2[nH]1)NC1CCCC1 was tested. Which Potency did it give?
The Potency was inconclusive [inhibitor, single point].

With CCCCNC(=O)c1ccc2nc(-c3ccco3)c(-c3ccco3)nc2c1 as the compound, how does the Potency read?
Its Potency is inconclusive [inhibitor, partial curve, poor fit].

How did the Potency turn out when O=C(Nc1cccc(Oc2ccc(C(=O)O)c(C(=O)O)c2)c1)c1ccc(-c2ccccc2)cc1 was run?
The Potency was inconclusive [inhibitor, single point].

Which Potency does the source give for Cc1cc(=O)oc2c(CN3CCC(C)CC3)c(O)c(Cl)cc12 here?
Its Potency is inconclusive [inhibitor, single point].

How did the Potency turn out when Cc1ccc(S(=O)(=O)N2CCCCC2)cc1C(=O)Nc1ccc(S(=O)(=O)Nc2ncccn2)cc1 was run?
The Potency was active: 30.1 µM.

With N#Cc1c(-c2ccccc2)nc(SCC(=O)N2c3ccccc3Sc3ccccc32)[nH]c1=O as the compound, how does the Potency read?
Its Potency is inconclusive [inhibitor, single point].

How did the Potency turn out when O=C(c1cccc(-n2cccc2)c1)N1CCN(S(=O)(=O)c2ccccc2)CC1 was run?
Its Potency is active: 8.49 µM.

How did the Potency turn out when CC1=NN(c2ccc(Cl)c(C(=O)O)c2)C(=O)/C1=C\c1ccc(-c2ccc(C(=O)O)cc2)o1 was run?
Its Potency is inconclusive [inhibitor, full curve, poor fit].

Which Potency does the source give for Cc1[nH]n(-c2ncc(-c3ccccc3)s2)c(=O)c1C(c1ccc(Cl)cc1)C(C#N)C#N (stereo not given) here?
Its Potency is inconclusive [inhibitor, single point].

How did the Potency turn out when COc1ccc2c(c1)c(=O)oc1c(C)c(OCc3cc(C(=O)O)oc3C)ccc12 was run?
Its Potency is inconclusive [inhibitor, single point].

Which Potency does the source give for O=C(O)c1cccc(-n2cccc2/C=C2/NC(=O)N(Cc3ccccc3F)C2=O)c1 here?
The Potency was inconclusive [inhibitor, single point].
